# Laboratory results reported in PubChem BioAssay (NCI).
#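 Where inhibition never reached the appropriate level, the endpoint shown equals the highest concentration tested. Otherwise, values were interpolated linearly from a five-concentration, 48-hour dose response in 96-well plates. The concentration for 50% growth inhibition is given as GI50. TGI marks complete inhibition of growth.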
# Test system: NCI-H322M lung
# Experiment: inhibition of tumour cell growth, NCI panel, 48 h
structure (smiles),measurement,value
CCOC(=O)C1=C(N)N(c2ccccc2)C2=C(C(=O)CC(C)(C)C2)C1c1ccc(Cl)cc1Cl (configuration not stated),GI50,77.1 µM
same,TGI,> 100 µM
